Experimental findings from publication PMC4336329 (PLoS ONE, 2015) are described below.

Structures are written as SMILES. Among all 310,000 compounds or so, about 2,200 (0.71%) showed an effect of 50% or more. Effects have a minus sign here. Some of the results follow.

human ether-à-go-go-related gene (hERG) potassium channel, sequence (Q12809 whole entry, looked up): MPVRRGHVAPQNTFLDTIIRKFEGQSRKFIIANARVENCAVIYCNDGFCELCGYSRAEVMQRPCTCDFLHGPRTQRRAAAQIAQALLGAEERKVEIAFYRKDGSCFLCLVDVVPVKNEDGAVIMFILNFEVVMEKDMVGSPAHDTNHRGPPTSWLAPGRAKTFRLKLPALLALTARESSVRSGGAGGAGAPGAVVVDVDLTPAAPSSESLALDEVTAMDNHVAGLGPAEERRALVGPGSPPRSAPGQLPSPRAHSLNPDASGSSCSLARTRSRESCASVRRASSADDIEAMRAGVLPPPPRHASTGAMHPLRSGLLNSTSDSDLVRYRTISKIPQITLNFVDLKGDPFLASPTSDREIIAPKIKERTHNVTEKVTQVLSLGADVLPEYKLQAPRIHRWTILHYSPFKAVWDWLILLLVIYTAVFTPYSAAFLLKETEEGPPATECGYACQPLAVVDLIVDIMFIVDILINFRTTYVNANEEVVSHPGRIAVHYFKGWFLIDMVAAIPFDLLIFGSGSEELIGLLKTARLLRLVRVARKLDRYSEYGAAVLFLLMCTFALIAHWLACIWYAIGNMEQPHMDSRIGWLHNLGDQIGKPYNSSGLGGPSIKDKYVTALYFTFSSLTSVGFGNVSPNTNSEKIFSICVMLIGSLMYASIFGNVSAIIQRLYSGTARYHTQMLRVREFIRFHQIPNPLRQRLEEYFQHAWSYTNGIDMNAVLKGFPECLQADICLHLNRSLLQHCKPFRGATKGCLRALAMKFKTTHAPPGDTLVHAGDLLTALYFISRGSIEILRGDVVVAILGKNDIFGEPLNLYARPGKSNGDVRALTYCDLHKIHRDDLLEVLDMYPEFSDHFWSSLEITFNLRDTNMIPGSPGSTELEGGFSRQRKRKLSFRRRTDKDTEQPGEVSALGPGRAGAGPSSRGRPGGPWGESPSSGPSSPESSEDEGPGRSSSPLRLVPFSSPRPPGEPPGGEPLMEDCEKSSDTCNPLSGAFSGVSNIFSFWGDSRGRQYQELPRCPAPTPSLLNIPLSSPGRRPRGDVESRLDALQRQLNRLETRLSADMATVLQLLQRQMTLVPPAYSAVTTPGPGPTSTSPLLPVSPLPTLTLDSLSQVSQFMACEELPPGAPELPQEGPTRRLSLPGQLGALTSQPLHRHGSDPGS

This test addresses human ether-à-go-go-related gene (hERG) potassium channel (human, UniProt Q12809). Description: primary screen, population patch clamp on CHO cells stably expressing hERG.
Turning to `CC(C)COc1ccc(S(=O)(=O)NNC(=O)c2cc3ccccc3o2)cc1`, the “hERG current change (%, negative = inhibition) at 1uM” value was -5.87%. With `Cc1cc(NC(=O)CSc2nnc(-c3cccnc3)n2C2CCCCC2C)no1` (centres unmarked) the figure was 14.2%; with `CCc1ccc(NC(=O)C(CC)c2ccccc2)cc1` (centres unmarked), 9.84%; with `Oc1ccccc1C1CC(c2cccs2)=NC(c2cccc(Br)c2)N1` (centres unmarked), 13.6%. In the case of `Cc1cc(C)n(-c2ccc(C(=O)N3CCN(c4ccccn4)CC3)cc2)n1` it was 2.43%. In the case of `N#C/C(=C\c1ccc(N2CCOCC2)o1)C(=O)N1CCOCC1` it was -1.16%. Consider `COc1ccc(OCC(=O)Nc2ccc(S(=O)(=O)N3CCCCC3)cc2)cc1`, for which the “hERG current change (%, negative = inhibition) at 1uM” value was -16%. In the case of `COc1cc(NC(C)=O)c2ncccc2c1NC(C)=O` it was 10.3%; in that of `Cc1ccc(Cl)c2c1NC(=O)C2(O)CC(=O)c1ccccc1O` (centres unmarked), 10.8%. In the case of `Cc1cc(NC(=O)CCN2CCCCC2)ccc1Br` it was 1.26%; in that of `O=C(N/N=C/c1c[nH]c2ccccc12)c1sc2ccccc2c1Cl`, 7.74%; in that of `CC1CCCCC1NC(=O)C1CCN(C(=O)c2sccc2-n2cccc2)CC1` (centres unmarked), -0.621%. In the case of `CN(C)c1ccc(/C=N/NC(=S)NCc2ccccc2)cc1` it was -1.32%; in that of `COC(=O)c1ccc(NC(c2ccc(Cl)cc2)P(=O)(OC)OC)cc1` (centres unmarked), 3.71%; in that of `CCc1ccc(CCC(=O)Nc2nnc(CC)s2)o1`, 6.1%.

Regarding `COC(=O)c1ccc(C(C(=O)NC2CCCCC2)N(Cc2ccc(F)cc2)C(=O)Cc2cccs2)cc1` (centres unmarked), the “hERG current change (%, negative = inhibition) at 1uM” value stood at 11%.

For `CCN(C(=O)COC(=O)c1c(C)c(-c2ccccc2)nc2ccccc12)C1CCS(=O)(=O)C1` (centres unmarked), the “hERG current change (%, negative = inhibition) at 1uM” value is on record as 6.71%.

For the molecule `O=C(NCCNC(=O)c1ccc(Cl)cc1Cl)c1ccccn1`, the “hERG current change (%, negative = inhibition) at 1uM” value stood at 10.8%. In the case of `O=C(O)c1ccc(-c2nnn(Cc3cccc(C(F)(F)F)c3)n2)cc1` it was 4.83%; in that of `Cc1ccc(S(=O)(=O)NCC(=O)N(CC(=O)NCC2CCCO2)Cc2ccccc2)cc1` (centres unmarked), -1.01%. Take `CN1C(C(=O)Nc2ccc(F)cc2F)=CC(c2cccs2)=NS1(=O)=O`: the “hERG current change (%, negative = inhibition) at 1uM” value was 11.6%. In the case of `O=C(NC(NC1CCS(=O)(=O)C1)C(Cl)(Cl)Cl)c1ccc(Br)cc1` (centres unmarked) it was -10.3%; in that of `COc1ccc(C(=O)NCC(=O)OCC(=O)Nc2cc(OC)ccc2OC)cc1`, 11.1%.

With `COc1cccc(C(=O)OCC(=O)Nc2ccccc2N2CCOCC2)c1`, the “hERG current change (%, negative = inhibition) at 1uM” value amounted to 4.76%.

For the molecule `CSc1nc2ccccc2cc1/C=C(\C#N)c1cccc(C)c1`, the “hERG current change (%, negative = inhibition) at 1uM” value is 7.9%. With `Cc1c(C)c2ccc(OCC(=O)NCc3ccccn3)cc2oc1=O` the figure was 7.43%; with `O=C(Nc1n[nH]c(=S)s1)c1ccc2ccccc2c1`, 17.5%. `Cc1onc(-c2ccccc2)c1C(=O)Nc1ccc(OC(C)C)cc1`: the “hERG current change (%, negative = inhibition) at 1uM” value is on record as -6.66%. In the case of `COc1ccc(S(=O)(=O)CCc2nnc(NC(=O)c3cccs3)s2)cc1` it was 13.1%. With `O=C(N/N=C/C(c1ccccc1)c1ccccc1)c1ccccc1F` the figure was 10.3%; with `O=C(CCn1c(=O)c2ccccc2n(CC(=O)NC2CCCC2)c1=O)NCCc1ccc(Cl)cc1`, 10.5%. Consider `COc1ccc(-c2cn[nH]c2C)cc1`, for which the “hERG current change (%, negative = inhibition) at 1uM” value is listed as 10.9%. With `Cc1ccccc1-n1c(CNc2ccccc2)nc2ccccc2c1=O` the figure was 14.1%; with `O=C(CCCC(=O)N1CCN(c2ccc([N+](=O)[O-])cc2)CC1)c1ccccc1`, -66%; with `CCC(=O)NCCc1nc2ccccc2n1CC(=O)c1ccccc1`, 11.5%. In the case of `CCC(=O)NC(=S)Nc1ccc(NC(=O)c2ccc(OC)cc2)cc1` it was 12.4%; in that of `CC(C)(C)c1ccc(COC(=O)CN2C(=O)NC3(CCCC3)C2=O)cc1`, -2.21%; in that of `COC(=O)c1cccc(NC(=O)Nc2ccccc2OC)c1`, 4.27%.

For `CC(C)=CCN1CCNC(=O)C1CC(=O)NCc1nc(C)c(C)s1` (centres unmarked), the “hERG current change (%, negative = inhibition) at 1uM” value worked out at 4.66%. In the case of `COc1ccc(CCNC(=O)C(C)n2nc(C)c3c(C)n(-c4ccc(C)cc4)nc3c2=O)c(OC)c1` (centres unmarked) it was -6.45%; in that of `COc1ccc(/C=N/NC(=O)Nc2cccc3nsnc23)c(OC)c1`, 3.18%. With `CC(C)(C)NC(=O)c1cc(NC(=O)c2ccco2)cc(NC(=O)c2ccco2)c1` the figure was -5.87%; with `CC(=O)Nc1ccc(S(=O)(=O)N(C#N)c2nc(C)cc(C)n2)cc1`, 16.3%. In the case of `CC(C)n1cc(CN2CCC(n3nccc3NC(=O)C3CCCC3)CC2)cn1` it was 6.1%; in that of `O=C(c1ccc2oc(CCc3ccccc3)nc2c1)N1CCC(O)CC1`, 14%; in that of `CN(C)S(=O)(=O)c1ccc(C(=O)NC2CCCc3ccccc32)cc1` (centres unmarked), 7.14%. Consider `CCCNC(=O)CSc1nc2ccccc2c(=O)n1CCC`, for which the “hERG current change (%, negative = inhibition) at 1uM” value stood at 4.07%.

For the molecule `CCC(=O)N1CCc2cc(S(=O)(=O)NCCN3CCC(C)CC3)ccc21`, the “hERG current change (%, negative = inhibition) at 1uM” value was found to be 3.14%.

`Cc1cccn2c(=O)c(C(=O)NC3CCCCC3C)c(O)nc12` (centres unmarked): the “hERG current change (%, negative = inhibition) at 1uM” value is -5.55%. With `O=C(Nc1nnc(CCc2ccccc2)s1)c1ccccc1F` the figure was 13.8%. In the case of `COc1cc(-c2nc(-c3ccc(Br)o3)no2)cc(OC)c1OC` it was 19.3%; in that of `N#C/C(=C(/O)COC(=O)CCCNC(=O)c1ccc(Cl)cc1)c1nc2ccccc2[nH]1`, 9.79%; in that of `CCCCn1c(-c2nn(C)c(C)c2Cl)n[nH]c1=S`, 6.33%.

As for `CC(C)(C)CC(=O)Nc1ccccc1N1CCN(c2ccc(F)cc2)CC1`, the “hERG current change (%, negative = inhibition) at 1uM” value is listed as 11.6%. In the case of `Cc1ccc2oc(C(=O)NCCC3CCCCO3)c(C)c2c1` (centres unmarked), the “hERG current change (%, negative = inhibition) at 1uM” value is 5.65%. In the case of `CCOC(=O)C[C@H]1c2ccc(C(F)(F)F)cc2S(=O)(=O)N1c1cccc(OC)c1` it was 0.0331%; in that of `CCCCc1c(C)nc(Nc2ccc(OC)cc2)[nH]c1=O`, -1.49%. With `COC(=O)c1ccccc1-c1c2ccc(=[NH2+])cc-2oc2cc(N)ccc12.O.[Cl-]` the figure was -5.95%; with `C=CCn1c(C)cc(-c2csc(NC(=O)C3=COCCO3)n2)c1C`, 11.4%; with `Nc1nnnn1CC(=O)N/N=C/C=C/c1ccccc1`, 13.1%. With `CC1(C)Cc2ccccc2-c2nnc(-c3cccc(O)c3)n21` the figure was 17%; with `Cc1ccc(C(=O)N2CCN(c3ccc(NC(=O)c4cccs4)cc3)CC2)cc1`, -8.11%; with `CC(C)(C)n1nnnc1C(c1cccs1)N(Cc1cccnc1)CC1CCCO1` (centres unmarked), -1.67%. With `CCOC(=O)c1cnc(-c2ccccc2)nc1-c1ccccc1`, the “hERG current change (%, negative = inhibition) at 1uM” value came out at 10.6%. For `FC(F)(F)c1cccc(Cc2noc(CN(Cc3ccccn3)CC3CCCO3)n2)c1` (centres unmarked), the “hERG current change (%, negative = inhibition) at 1uM” value is listed as -5.31%. Regarding `O=c1oc(-c2ccccc2)nc2ccsc12`, the “hERG current change (%, negative = inhibition) at 1uM” value came out at 5.1%. In the case of `CCCc1cc(=O)oc2cc(OCc3ccc(C(=O)O)o3)ccc12` it was 12.6%. With `COc1cccc(NC(=S)NC(=O)/C=C/c2ccco2)c1` the figure was 8.72%; with `CN1CCCN(C(=O)c2cccc(Br)c2)CC1`, 16.5%; with `CCOc1ccc(NC(=O)C2CCN(C(=O)NCc3ccccc3)CC2)cc1`, -5.56%.

On to `O=C(NCC1CCCO1)c1c(O)c2ccccc2[nH]c1=O` (centres unmarked), for which the “hERG current change (%, negative = inhibition) at 1uM” value is recorded as 7.7%.

`O=C(c1cnc2n(c1=O)CCS2)N(c1ccccc1)C1CCCCC1`: the “hERG current change (%, negative = inhibition) at 1uM” value was determined as 12.9%.

For `Cc1cc(NC(=O)c2cc3n(n2)C(C(F)(F)F)CC(c2ccco2)N3)n(-c2ccccc2)n1` (centres unmarked), the “hERG current change (%, negative = inhibition) at 1uM” value stood at 13.9%. In the case of `O=C(Nc1ccc(Cl)cc1)/C(=C1\CCCN1)[N+](=O)[O-]` it was 12.3%; in that of `CSc1nnc(C2CCCN(CC(=O)Nc3ccccc3N3CCOCC3)C2)n1C(C)C` (centres unmarked), 7.36%. In the case of `Cc1csc(CN(C)C(=O)CC2C(=O)NCCN2CC(C)(C)C)n1` (centres unmarked) it was 8.42%.

As to `Nc1cc2c(cc1[N+](=O)[O-])OCCO2`, the “hERG current change (%, negative = inhibition) at 1uM” value was 12.7%. With `CSCC[C@H](NS(=O)(=O)c1ccc(C)cc1)C(=O)N1CCC(C(=O)N[C@@H](Cc2ccc(O)cc2)C(=O)O)CC1` the figure was 9.25%; with `COc1ccc(NC(=O)/C=C/c2c(Cl)nc3ccccn23)cc1`, -17.7%; with `Cc1c(C(=O)N2c3ccccc3CC2C)oc2ccccc12` (centres unmarked), 13.6%. With `CCc1ccc(N(C(=O)C(F)(F)F)C(C(=O)NC2CCCCC2)c2ccncc2)cc1` (centres unmarked) the figure was 16.7%.

For `CCOc1ccc(NC(=O)C(CC(=O)O)Cc2ccc(Br)cc2)cc1` (centres unmarked), the “hERG current change (%, negative = inhibition) at 1uM” value is 19.8%. On to `COc1ccc(CNC(=O)C2=CCN(S(=O)(=O)c3ccc(C)cc3)CC2)cc1`, for which the “hERG current change (%, negative = inhibition) at 1uM” value was -5.06%.

With `Cn1c(=O)[nH]c(=O)c2c1nc(N1CCOCC1)n2CCCSc1ncccn1`, the “hERG current change (%, negative = inhibition) at 1uM” value is 6.15%. With `COc1ccc(NC(=O)CN(C)C(=O)c2cc(-c3ccc(C)o3)nc3ccccc23)cc1` the figure was 2.81%; with `COc1ccc(OCC(=O)Nc2ccc3nc(C)sc3c2)cc1`, 12.8%; with `CN(C)CCNC(=O)c1ccc2c(=O)n(Cc3ccc(Cl)cc3)c(=S)[nH]c2c1`, 6.22%.

Take `Cc1ccc(NCCC(=O)c2ccc(Br)cc2)cc1`: the “hERG current change (%, negative = inhibition) at 1uM” value stood at 8.22%.

For the molecule `Cn1cc(S(=O)(=O)Nc2ccc3c(c2)OCCO3)cn1`, the “hERG current change (%, negative = inhibition) at 1uM” value turned out to be 1.33%.
